{
  "source": "PubChem BioAssay AID1460",
  "about": "(National Center for Advancing Translational Sciences (NCATS), 2008)",
  "note": "Hit rate of the full screen: of about 270,000 compounds, about 5,800 (2.1%) were called active. This list was built around the results that the source calls inconclusive (neither active nor inactive); the mix of calls is not that of the screen. Calls come from the whole dose curve; as a rule, active = well fitted inhibition curve with a large enough effect; inconclusive = small, poorly fitted or top-dose-only effect; inactive = flat fitted curve, though single readings scatter. Potencies beside an inconclusive call are fits to weak or partial responses and may not hold up. Potency is the fitted concentration of half-maximal effect; tags give direction and shape of the fitted curve.",
  "data": [
    {"target": "Microtubule-associated protein tau (Homo sapiens) (UniProt P10636)", "sequence (P10636 whole entry, looked up, the tested form may be a part)": "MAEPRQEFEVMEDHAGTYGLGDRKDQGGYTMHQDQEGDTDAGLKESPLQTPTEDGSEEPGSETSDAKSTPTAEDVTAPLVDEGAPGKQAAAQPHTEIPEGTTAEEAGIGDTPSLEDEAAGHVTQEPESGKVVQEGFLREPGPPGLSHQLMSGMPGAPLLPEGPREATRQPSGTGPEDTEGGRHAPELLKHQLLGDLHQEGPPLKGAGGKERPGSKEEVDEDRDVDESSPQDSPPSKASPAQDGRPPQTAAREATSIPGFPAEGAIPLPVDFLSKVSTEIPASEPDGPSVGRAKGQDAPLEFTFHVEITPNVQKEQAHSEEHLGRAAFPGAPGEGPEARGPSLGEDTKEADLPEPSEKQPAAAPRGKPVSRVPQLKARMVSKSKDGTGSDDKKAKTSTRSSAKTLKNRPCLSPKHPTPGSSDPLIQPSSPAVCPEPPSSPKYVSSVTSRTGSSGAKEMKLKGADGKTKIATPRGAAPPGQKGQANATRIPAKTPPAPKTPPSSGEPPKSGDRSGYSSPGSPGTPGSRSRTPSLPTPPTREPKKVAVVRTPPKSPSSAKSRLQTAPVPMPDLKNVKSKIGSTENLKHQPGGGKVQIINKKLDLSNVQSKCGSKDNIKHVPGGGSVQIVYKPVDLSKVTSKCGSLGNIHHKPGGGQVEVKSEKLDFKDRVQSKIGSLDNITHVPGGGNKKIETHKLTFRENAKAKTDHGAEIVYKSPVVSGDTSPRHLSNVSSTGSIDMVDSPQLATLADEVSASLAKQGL", "assay": "qHTS for Inhibitors of Tau Fibril Formation, Thioflavin T Binding; note: nearly all actives have a fitted effect of over 55% in size", "details": "recombinant tau K18 P301L (four-repeat tau fragment), heparin-induced fibrillization, ThT fluorescence; series mostly up to 57.4 µM", "how_it_was_run": "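Tau K18 P301L fragment (15 uM unlabeled plus 0.24 uM Alexa 594-labeled) in 100 mM sodium acetate pH 7 with compound, fibrillization induced by 20 uM heparin for 6 hr at 37 C. Thioflavin T (30 uM) added, fluorescence read after 1 hr (ex 450, em 510 nm).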", "values": [
      {"smiles": "O=c1c2cnn(-c3ccc(Cl)cc3)c2ncn1Cc1ccc(Cl)cc1Cl", "Potency": "inactive"},
      {"smiles": "COc1ccc(NC(=O)c2ccc(NS(=O)(=O)c3c(C)noc3C)cc2)cc1OC", "Potency": "inconclusive: 0.0224 µM [inhibitor, full curve, poor fit]"},
      {"smiles": "Nc1nn2c(C(F)(F)F)cc(=O)[nH]c2c1N=Nc1cccc(F)c1", "Potency": "active: 7.94 µM"},
      {"smiles": "CCC(C)n1cnc2c(c1=O)c1nc3ccccc3nc1n2Cc1ccc(OC)cc1", "note": "(stereo not given)", "Potency": "inconclusive: 14.1 µM [inhibitor, partial curve, poor fit]"},
      {"smiles": "CCN1C(=O)CC(Sc2ccccc2C(=O)O)C1=O", "note": "(stereo not given)", "Potency": "inactive"},
      {"smiles": "Cc1cc(NCc2ccccn2)n2nc(C)c(-c3ccc(Cl)cc3)c2n1", "Potency": "inconclusive: 3.55 µM [inhibitor, partial curve]"},
      {"smiles": "COc1cccc(CNC(=O)C2CCN(C(=O)N3CCOc4ccc(Cl)cc43)CC2)c1OC", "Potency": "inconclusive: 12.6 µM [inhibitor, partial curve, poor fit]"},
      {"smiles": "COc1ccc(Cl)cc1NC(=O)c1cc(C)nc2c1c(C)nn2-c1ccccc1", "Potency": "inactive"},
      {"smiles": "Cc1cc(OCCCn2ccnc2)ccc1C(C)C", "Potency": "inactive"},
      {"smiles": "c1coc(-c2nc3nc4ccccc4nc3n2-c2ccc3c(c2)OCCO3)c1", "Potency": "inactive"},
      {"smiles": "CCS(=O)(=O)Nc1ccc(C(=O)c2ccccc2)cc1", "Potency": "inactive"},
      {"smiles": "CC(=O)Oc1ccccc1N(C(C)=O)S(=O)(=O)c1cccc([N+](=O)[O-])c1", "Potency": "inactive"},
      {"smiles": "CC1CCc2sc(C(=O)N/N=C/C3CCCCC3)cc2C1", "note": "(stereo not given)", "Potency": "inconclusive: 12.6 µM [inhibitor, single point]"},
      {"smiles": "Cc1nc(C)c(-c2ccc(SCC(=O)Nc3ccc(Cl)c(Cl)c3)nn2)s1", "Potency": "inactive"},
      {"smiles": "COc1ccccc1NC(=O)N1c2ccccc2Sc2ccccc21", "Potency": "inconclusive: 14.1 µM [inhibitor, partial curve, poor fit]"},
      {"smiles": "CC(C)CC(=O)Nc1nnc(S(=O)(=O)N2CCCCCC2)s1", "Potency": "active: 2.82 µM"},
      {"smiles": "COc1ccc(/C=N/Nc2ccc(C(F)(F)F)cc2[N+](=O)[O-])cc1O", "Potency": "inconclusive: 1 µM [inhibitor, full curve]"},
      {"smiles": "Clc1cc2c(nn1)Nc1ccccc1S2", "Potency": "inconclusive: 35.5 µM [inhibitor, single point]"},
      {"smiles": "CCOC(=O)C=Nc1c(N)n(C)c(=O)n(C)c1=O", "Potency": "inconclusive: 14.1 µM [inhibitor, partial curve]"},
      {"smiles": "Cc1cccc(N2CCN(C(=O)Cn3cccc3C(=O)c3ccccc3)CC2)c1C", "Potency": "inconclusive: 31.6 µM [inhibitor, partial curve]"},
      {"smiles": "COc1ccccc1-c1ccc(SCc2ccc(F)cc2)nn1", "Potency": "inconclusive: 39.8 µM [inhibitor, single point]"},
      {"smiles": "NN=C1c2cc([N+](=O)[O-])ccc2-c2ccc([N+](=O)[O-])cc21", "Potency": "inconclusive: 0.631 µM [inhibitor, full curve]"},
      {"smiles": "COC(=O)c1ccccc1NC(=O)c1cnc(Nc2ccc(OC)cc2)c2ccccc12", "Potency": "inconclusive: 11.2 µM [inhibitor, partial curve]"},
      {"smiles": "COc1ccc(C2=Nc3ccc(F)cc3NC(c3cccc(C(F)(F)F)c3)=N2)cc1", "Potency": "inconclusive: 25.1 µM [inhibitor, single point]"},
      {"smiles": "Oc1cccc(/C=N/Nc2cccc3cccnc23)c1", "Potency": "active: 14.1 µM"},
      {"smiles": "Cc1cccc(N2CCN(Cc3nnc(-c4ccccc4C)o3)CC2C)c1", "note": "(stereo not given)", "Potency": "inconclusive: 12.6 µM [inhibitor, partial curve, poor fit]"},
      {"smiles": "COc1ccccc1NC(=O)c1cnc2c(-c3ccccc3)c(C)nn2c1C", "Potency": "inconclusive: 6.31 µM [inhibitor, full curve]"},
      {"smiles": "O=C(/C=C/c1ccccc1)Nc1scc(-c2ccccc2)c1C(=O)O", "Potency": "inconclusive: 20 µM [inhibitor, single point]"},
      {"smiles": "CCN(CC)C(c1ccc(C)cc1)c1nnnn1C1CCCCC1", "note": "(stereo not given)", "Potency": "inactive"},
      {"smiles": "Cc1nn(C)cc1/C=N\\NC(=O)c1ccc2c(c1)c(C)c(C)n2Cc1ccccc1", "Potency": "inconclusive: 25.1 µM [inhibitor, partial curve]"},
      {"smiles": "CN(C)c1ccc(CNC(=O)c2ccc(Cn3c(=O)c4cccn4c4cccnc43)cc2)cc1", "Potency": "inactive"},
      {"smiles": "COc1ccc(Nc2nc(N)nc(SCc3nnc(C)s3)n2)cc1", "Potency": "inconclusive: 35.5 µM [inhibitor, single point]"},
      {"smiles": "COc1ccc(-n2cnc3cc(C(=O)NC4CCCC4)ccc32)cc1", "Potency": "inconclusive: 44.7 µM [inhibitor, partial curve, poor fit]"},
      {"smiles": "COc1ccc(Cn2c(C(=O)O)c(CNCc3ccco3)c3ccc(OC)cc32)cc1", "Potency": "inactive"},
      {"smiles": "Cc1ccc(-c2nnc(SCC(=O)N3CCOCC3)nc2-c2ccc(C)cc2)cc1", "Potency": "inconclusive: 17.8 µM [inhibitor, partial curve]"},
      {"smiles": "CCOC(=O)c1ccc(NC(=O)CSc2nnc3c4ccccc4n(CC)c3n2)cc1", "Potency": "inconclusive: 0.447 µM [inhibitor, partial curve]"},
      {"smiles": "COc1ccc(-c2cn3cccnc3n2)cc1NC(=O)c1ccc(Br)o1", "Potency": "inconclusive: 39.8 µM [activator, single point]"},
      {"smiles": "CCNc1c(C(=O)O)ccc2c1C(=O)c1ccccc1C2=O", "Potency": "inconclusive: 14.1 µM [inhibitor, partial curve]"},
      {"smiles": "C#C[C@]1(O)CC[C@H]2[C@@H]3CCc4cc(O)ccc4[C@H]3CC[C@@]21C", "Potency": "inconclusive: 28.2 µM [inhibitor, single point]"},
      {"smiles": "CCOC(=O)/C(=N\\Nc1ccc(Cl)cc1)c1csc(Nc2ccccc2)n1", "Potency": "inconclusive: 8.91 µM [inhibitor, partial curve]"},
      {"smiles": "Cc1cc(/C=N/NC(N)=O)c(C)n1C1CCCCC1", "Potency": "inconclusive: 28.2 µM [inhibitor, single point]"},
      {"smiles": "c1ccc(-c2nnc(CSc3nnc(-c4cccs4)o3)o2)cc1", "Potency": "inactive"},
      {"smiles": "CCOc1cc(Br)cc(C2NC(=O)c3c(sc4c3CCN(C)C4)N2)c1O", "note": "(stereo not given)", "Potency": "active: 15.8 µM"},
      {"smiles": "Cc1scc(C(=O)N/N=C/c2ccc(OCC(C)C)cc2)c1C", "Potency": "inconclusive: 1.12 µM [inhibitor, full curve]"},
      {"smiles": "CCc1ccc2[nH]c(=O)c(C(c3nnnn3CCOC)N3CCN(c4ccccc4F)CC3)cc2c1", "note": "(stereo not given)", "Potency": "active: 17.8 µM"}
    ]}
  ]
}
